Reference: the supplement of paper PMC3724861
The list shows a part of the results.

Tested on: T1, Caupolican (Caup) homeodomain DNA-binding domain
T1 sequence: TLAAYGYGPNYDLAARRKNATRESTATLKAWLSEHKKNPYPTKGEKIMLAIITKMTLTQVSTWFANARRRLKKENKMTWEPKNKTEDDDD
Assay: PBM E-score (8-mer, recovered from the published 9-mer minima) (E-score (dimensionless, -0.5 to 0.5)); Drosophila protein; higher = stronger relative binding preference, active = 0.31 or more
Procedure, shortened: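 An enrichment score, with higher meaning stronger, expresses relative binding preference for each short DNA word. The protein used was Caup's homeodomain DNA-binding domain (residues 214-303), produced by in vitro transcription and translation and tested at 100 nM on custom-designed protein binding microarrays. The 8-mer values were recovered from published 9-mer scores, each equal to the lower of its two constituent 8-mer scores.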

| Sequence | PBM E-score |
| --- | --- |
| CCGGCAAC | inactive: -0.0754 |
| CAAGTAGA | inactive: 0.0939 |
| AGGGACGA | inactive: -0.0483 |
| TGCATTAA | inactive: 0.0767 |
| TCTTACCA | inactive: 0.0412 |
| AGCTATTG | ≥ 0.087 |
| CAGGGGGG | inactive: -0.363 |
| AGGTGTTC | inactive: 0.206 |
| CCTACCGC | inactive: -0.162 |
| CGGAACAC | ≥ 0.262 |
| ATACGCGC | inactive: -0.0296 |
| AGTCGTTG | inactive: -0.0576 |
| CAGAGGGA | inactive: -0.177 |
| ATGTCGCA | active: 0.331 |
| GCGATATA | inactive: 0.0317 |
| AAGAAGAA | inactive: -0.0299 |
| ATACTTAC | inactive: 0.166 |
| GAATCAAA | inactive: 0.0109 |
| CGATGCAG | inactive: -0.112 |
| ACTTCCTG | inactive: 0.0102 |
| GCCTCAAC | inactive: -0.136 |
| TAATGCCA | ≥ 0.0429 |
| ATAAGGGG | inactive: -0.15 |
| ACTTATCA | inactive: 0.0236 |

| Sequence | PBM E-score |
| --- | --- |
| TCTATCCA | inactive: -0.0275 |
| AGTTGTCA | active: 0.315 |
| TAGACACA | inactive: 0.2 |
| CCATCCTC | inactive: -0.111 |
| CAAAGATG | inactive: -0.00598 |
| TCCTCGCA | inactive: -0.104 |
| CGCATCTC | inactive: -0.0712 |
| AGCACTCG | inactive: -0.0756 |
| ACCCGTCG | inactive: -0.194 |
| AGGAAAGA | inactive: -0.0157 |
| AACTTTGA | inactive: 0.015 |
| AGTCCTGG | inactive: -0.0612 |
| AGTTTGAC | inactive: 0.0752 |
| ATCAAGAC | inactive: 0.102 |
| CCACTTCC | inactive: -0.0264 |
| ACGGATAA | inactive: 0.0309 |
| CATTTCGG | inactive: 0.00244 |
| CTGCTGCA | inactive: -0.0929 |
| CGCAGAAC | inactive: -0.0278 |
| CAGCGACA | inactive: 0.185 |
| CGCGGAAA | inactive: -0.11 |
| GAAACACA | inactive: 0.215 |
| GACCCATC | inactive: -0.0629 |
| AGCCTCCG | inactive: -0.283 |

| Sequence | PBM E-score |
| --- | --- |
| TACATAGA | inactive: 0.278 |
| CTCTACGA | inactive: -0.00649 |
| CAGTGTCA | inactive: 0.179 |
| CCACGCTA | inactive: -0.162 |
| CCGTTTCA | inactive: -0.0372 |
| ACAGGTTG | inactive: 0.192 |
| ACGCAAGA | inactive: 0.00351 |
| GCAACCGC | inactive: -0.118 |
| ATGGAAAG | inactive: -0.0209 |
| AGAGGGGA | inactive: -0.201 |
| GTCTCACA | inactive: 0.0806 |
| AACCGGCG | inactive: -0.0557 |
| GATTGGAA | inactive: -0.0852 |
| AAGTCATA | inactive: 0.0399 |
| GATACTAA | inactive: 0.101 |
| TCCTCAAA | ≥ -0.00054 |
| CGCTCCCC | inactive: -0.314 |
| ACGATTCA | inactive: -0.00059 |
| AGGGTAAT | inactive: 0.0509 |
| AATGCATC | inactive: 0.0542 |
| AGAATATA | inactive: 0.129 |
| AACGGGCA | inactive: -0.0377 |
| AAATGCTA | inactive: 0.0285 |
| TATGCAAA | inactive: 0.121 |

| Sequence | PBM E-score |
| --- | --- |
| GGCCGACC | inactive: -0.208 |
| AATTAGAG | inactive: 0.00042 |
| CTCACTAC | inactive: 0.075 |
| AAAAAGCT | inactive: -0.189 |
| CTAGTTGA | inactive: 0.0852 |
| CCCTGTAA | inactive: 0.161 |
| ACTCAGTG | inactive: -0.068 |
| CCTCGTCA | ≥ 0.0375 |
| ATTCTCAA | inactive: 0.0425 |
| AGTACATA | active: 0.381 |
| GCAGTTCC | inactive: -0.129 |
| AGTCTAAG | inactive: 0.0473 |
| CAGCTTGA | inactive: -0.0258 |
| ACCATATC | inactive: 0.0441 |
| ATATATGG | inactive: 0.127 |
| CGAGGGCG | inactive: -0.271 |
| ACACAGAC | inactive: 0.196 |
| AGGTTAAA | inactive: 0.0382 |
| AGCCGCAG | inactive: -0.233 |
| ACTGTACC | inactive: 0.107 |
| GAGAGACA | inactive: 0.0653 |
| CGTAATCC | inactive: 0.0262 |
| AGGGGATC | inactive: -0.123 |
| AGCGACCC | inactive: -0.214 |

| Sequence | PBM E-score |
| --- | --- |
| ATTGTCAG | inactive: 0.157 |
| GTCTGCAA | inactive: -0.0406 |
| GGTAGCTA | inactive: -0.0708 |
| TAGTGACA | inactive: 0.247 |
| AGGTATAT | inactive: 0.029 |
| ACAAGCCT | inactive: 0.218 |
| AGATAAGG | inactive: -0.047 |
| ATTACATC | active: 0.374 |
| ACTTGTCC | inactive: 0.237 |
| CTAAGGTA | inactive: 0.0501 |
| AATACGTC | inactive: 0.0237 |
| CTTACGCA | inactive: 0.0487 |
| ATATTCTG | inactive: 0.125 |
| CCAGCTCG | inactive: -0.148 |
| TCATACAA | inactive: 0.163 |
| CTATTGAA | inactive: 0.0499 |
| CGGAGGCC | inactive: -0.299 |
| CACTGGCA | inactive: -0.027 |
| CGGGGACC | inactive: -0.286 |
| ATTCCGAG | inactive: -0.0451 |
| AAGCATTC | inactive: 0.0134 |
| AGTGTATG | inactive: 0.125 |
| AGGCGTCA | inactive: -0.0905 |
| ACGCTTAG | inactive: -0.0224 |

| Sequence | PBM E-score |
| --- | --- |
| CAGGTTCG | inactive: -0.0239 |
| AGACTACA | inactive: 0.243 |
| AATCGTCT | inactive: -0.00532 |
| ATTTATGC | inactive: -0.0181 |
| GACAAAAC | inactive: 0.137 |
| CTAAGGAC | inactive: -0.0836 |
| TTAAGTAA | inactive: 0.0753 |
| ACTGATGG | inactive: 0.0233 |
| ACGGGCGA | ≥ -0.131 |
| ACGTAGTA | inactive: 0.0539 |
| AGTGCCAG | inactive: -0.146 |
| ACAGGTGC | inactive: 0.0923 |
| ATGTCATC | inactive: 0.306 |
| CACGAAGA | inactive: 0.0613 |
| CCGGTACA | inactive: 0.178 |
| CAACAGCC | inactive: -0.0148 |
| CACTCGCC | inactive: -0.169 |
| GGGCCTGA | inactive: -0.248 |
| AGGGCATG | inactive: 0.0665 |
| ACCGTGAA | inactive: -0.0279 |
| AGCCTACA | inactive: 0.0993 |
| CTTGCCGA | inactive: -0.0128 |
| ATAACCTA | inactive: 0.0723 |
